Test results as given in the antibiotic and cytotoxicity screens of Wong et al. (2023).
The other results are listed elsewhere or left out.

Key:
[1] = test system: HSkMC (human skeletal muscle cells); assay: cytotoxicity call (relative viability < 0.9); settings: 10 µM
[2] = test system: HepG2; assay: cytotoxicity call (relative viability < 0.9); settings: 10 µM
[3] = test system: S. aureus RN4220; assay: growth inhibition call (relative growth <= 0.2); settings: 50 µM

Structure (SMILES)	cytotoxicity call [1]	cytotoxicity call [2]	growth inhibition call [3]
Cc1sc2ncnc(N3CCC(Cn4cc(C(C)(C)N)nn4)CC3)c2c1C	inactive	inactive	inactive
CO[C@H]1/C=C\C=C(/C)C(=O)NC2=CC(=O)C=C(C2=O)[C@H](OC)[C@@H](C)C[C@H](OC)[C@H](O)[C@@H](C)/C=C(\C)[C@@H]1OC(N)=O	inactive	inactive	inactive
Nc1ccc(C(=O)[O-])c(O)c1.[Na+]	inactive	inactive	inactive
C[C@@H]1CN([C@@H](C)CO)C(=O)c2cc(NC(=O)CCC(F)(F)F)ccc2O[C@H]1CN(C)S(C)(=O)=O	inactive	inactive	inactive
O=C(C[C@@H]1CC[C@@H]2[C@H](COC[C@H](O)CN2C(=O)C2CC2)O1)NCc1ccncc1	inactive	inactive	inactive
COc1cc(C=CC(=O)N2CCCCCCC2)cc(OC)c1OC	inactive	inactive	inactive
C[C@@H]1CN([C@H](C)CO)C(=O)c2cc(NC(=O)c3ccccc3)ccc2O[C@@H](C)CCCCO[C@H]1CN(C)C(=O)Nc1ccc(F)cc1	inactive	inactive	inactive
Cc1ccc(S(=O)(=O)Nc2ccc3c(c2)C(=O)N([C@@H](C)CO)C[C@H](C)[C@@H](CN(C)Cc2ccc(Oc4ccccc4)cc2)O3)cc1	inactive	inactive	inactive
CC[C@H]1OC(=O)[C@H](C)[C@@H](O[C@H]2C[C@@](C)(OC)[C@@H](O)[C@H](C)O2)[C@H](C)[C@@H](O[C@@H]2O[C@H](C)C[C@H](N(C)C)[C@H]2O)[C@](C)(O)C[C@@H](C)C(=O)[C@H](C)[C@@H](O)[C@]1(C)O	inactive	active	active
C[C@H](CO)N1C[C@H](C)[C@H](CN(C)S(=O)(=O)c2cn(C)cn2)Oc2ccc(NC(=O)C3CC3)cc2C1=O	inactive	inactive	inactive
C[C@@H]1CN([C@H](C)CO)C(=O)c2c(c3ccccc3n2C)-c2ccccc2CO[C@@H]1CN(C)Cc1cccc(F)c1	inactive	inactive	inactive
C[C@@H]1CN([C@H](C)CO)C(=O)c2cc(NC(=O)CCCN(C)C)ccc2O[C@@H]1CN(C)S(=O)(=O)c1cn(C)cn1	inactive	inactive	inactive
C[C@@H]1CN([C@@H](C)CO)C(=O)c2cc(C#CC3CCCCC3)cnc2O[C@H]1CN(C)C(=O)Cc1ccccn1	inactive	inactive	inactive
CCCC(=O)NCc1nccc(N(C)C)n1	inactive	inactive	inactive
Cc1ccc(S(=O)(=O)Nc2ccc3c(c2)CC(=O)N([C@H](C)CO)C[C@@H](C)[C@H](CN(C)CC2CC2)O3)cc1	inactive	inactive	inactive
CC(C)c1cn(CC[C@H]2CC[C@H](N)[C@@H](CO)O2)nn1	inactive	inactive	inactive
CC(C)NC(=O)N[C@@H]1C=C[C@@H](CC(=O)NCCN2CCCC2)O[C@@H]1CO	inactive	inactive	inactive
CCNC(=O)C[C@@H]1CC[C@H]2[C@@H](COC[C@@H](O)CN2S(=O)(=O)c2ccc(Oc3ccccc3)cc2)O1	inactive	inactive	inactive
COCC#Cc1ccc([C@H]2[C@@H](CO)N3C(=O)CN(C(=O)c4ccncc4)C[C@@H]23)cc1	inactive	inactive	inactive
COc1ccc(C(=O)CCC(=O)O)c2ccccc12	inactive	active	inactive
CCO[C@H]1OC(C(=O)N2CCN(Cc3ccc4c(c3)OCO4)CC2)=C[C@@H](c2ccc(C(F)(F)F)cc2)[C@@H]1CCCOC(=O)NCCCCCC(=O)NO	inactive	inactive	inactive
C[C@H](CO)N1C[C@H](C)[C@@H](CN(C)S(C)(=O)=O)Oc2ccc(NC(=O)CCC(F)(F)F)cc2C1=O	inactive	inactive	inactive
COc1cccc(S(=O)(=O)Nc2ccc3c(c2)[C@@H]2C[C@H](CC(=O)NCc4cccc(F)c4)O[C@@H](CO)[C@@H]2O3)c1	inactive	inactive	inactive
C[C@H](CO)N1C[C@H](C)[C@@H](CN(C)Cc2ccc(Cl)c(Cl)c2)Oc2c(NC(=O)Nc3cccc4ccccc34)cccc2C1=O	active	inactive	inactive
C[C@H]1[C@H]([Si](C)(C)F)[C@@H](CC(=O)N(CCO)Cc2ccccc2)O[C@]12C(=O)N(c1ccccc1)c1ccccc12	inactive	inactive	inactive
COc1ccc(NC(=O)Nc2ccc3c(c2)C(=O)N([C@@H](C)CO)C[C@H](C)[C@@H](CN(C)S(=O)(=O)c2ccc(F)cc2)OCCCC[C@H](C)O3)cc1	inactive	inactive	inactive
C[C@H]1CCCCO[C@H](CN(C)C(=O)Nc2cccc3ccccc23)[C@@H](C)CN([C@@H](C)CO)C(=O)c2cc(NC(=O)Cc3ccccc3)ccc2O1	inactive	inactive	inactive
CN1C(=O)c2cc(NC(=O)C3CCC3)ccc2OC[C@H]2O[C@@H](CC(=O)NCCc3ccncc3)CC[C@H]21	inactive	inactive	inactive

Structure (SMILES)	cytotoxicity call [1]	cytotoxicity call [2]	growth inhibition call [3]
C[C@H]1CN([C@@H](C)CO)S(=O)(=O)c2ccc(-c3cccnc3)cc2O[C@H]1CN(C)C(=O)NC1CCCCC1	inactive	inactive	inactive
C[C@H]1CCCCO[C@H](CN(C)C(=O)CCC(F)(F)F)[C@@H](C)CN([C@@H](C)CO)C(=O)c2cc(NC(=O)Nc3ccc4c(c3)OCO4)ccc2O1	inactive	inactive	inactive
CCC(=O)N1CCN=C1SC	inactive	inactive	inactive
C[C@@H]1CN([C@@H](C)CO)C(=O)c2cc(NC(=O)Nc3ccc(F)cc3)ccc2O[C@H]1CN(C)C(=O)Nc1ccc(C(F)(F)F)cc1	inactive	inactive	inactive
CC(C)CCCC(=O)N[C@@H](CCNCS(=O)(=O)O)C(=O)N[C@H](C(=O)N[C@@H](CCNCS(=O)(=O)O)C(=O)N[C@H]1CCNC(=O)[C@H]([C@@H](C)O)NC(=O)[C@H](CCNCS(=O)(=O)O)NC(=O)[C@H](CCNCS(=O)(=O)O)NC(=O)[C@H](CC(C)C)NC(=O)[C@H](CC(C)C)NC(=O)[C@H](CCNCS(=O)(=O)O)NC1=O)[C@@H](C)O	inactive	inactive	inactive
CO[C@H]1CN(C)C(=O)c2cc(NS(C)(=O)=O)ccc2OC[C@@H](C)N(C(=O)CN(C)C)C[C@@H]1C	inactive	inactive	inactive
C[C@H](CO)N1C[C@H](C)[C@@H](CN(C)C(=O)Nc2ccc3c(c2)OCO3)Oc2c(NC(=O)c3cnccn3)cccc2C1=O	inactive	inactive	inactive
C[C@H]1CN([C@@H](C)CO)C(=O)Cc2cc(NC(=O)Nc3ccc(Cl)c(Cl)c3)ccc2O[C@H]1CN(C)S(=O)(=O)c1ccc(Oc2ccccc2)cc1	inactive	inactive	inactive
Cc1cc(=O)n2nc(CC(=O)NCCCn3c(C)cccc3=O)nc2[nH]1	inactive	inactive	inactive
C[C@@H]1CCCCO[C@@H](CN(C)Cc2ccncc2)[C@@H](C)CN([C@H](C)CO)C(=O)c2cc(NC(=O)CCCCCC(=O)Nc3ccccc3N)ccc2O1	inactive	inactive	inactive
CC1=CCc2c(cc3oc(C)cc(=O)c3c2O)OC1	inactive	inactive	inactive
CCS(=O)(=O)Nc1ccc2c(c1)C(=O)N(C)[C@@H]1CC[C@H](CC(=O)N[C@@H]3CCN(Cc4ccccc4)C3)O[C@H]1CO2	inactive	inactive	inactive
CO[C@@H]1CN(C)C(=O)c2ccc(NS(C)(=O)=O)cc2OC[C@@H](C)N(C(=O)C2CCOCC2)C[C@H]1C	inactive	inactive	inactive
C[C@@H]1CN([C@@H](C)CO)C(=O)c2cccc(NC(=O)NC3CCCCC3)c2O[C@H]1CN(C)Cc1ccc(Oc2ccccc2)cc1	inactive	inactive	inactive
Cc1ccc(S(=O)(=O)N2C[C@H](O)COC[C@H]3O[C@H](CC(=O)NCc4ccc5c(c4)OCO5)CC[C@@H]32)cc1	inactive	inactive	inactive
Nc1ncnc(NC[C@H]2CCCO2)c1[N+](=O)[O-]	inactive	inactive	inactive
C[C@@H]1CN([C@@H](C)CO)C(=O)c2cc(C#CCc3ccccc3)cnc2O[C@H]1CN(C)C(=O)Cc1cccnc1	inactive	inactive	inactive
C[C@H](CO)N1C[C@H](C)[C@H](CN(C)C(=O)Nc2ccc(F)cc2)Oc2ccc(NC(=O)CCCN(C)C)cc2C1=O	inactive	inactive	inactive
C[C@H](CO)N1C[C@H](C)[C@@H](CN(C)C(=O)Cc2ccccn2)Oc2cc(C#C[C@@H](C)O)ccc2S1(=O)=O	inactive	inactive	inactive
C=CCN1C(=O)[C@@]2(O[C@@H](CCn3cc([C@H](O)c4ccccc4)nn3)[C@H]([Si](C)(C)c3ccc(OC)cc3)[C@H]2C)c2cc(N3CCOC3=O)ccc21	inactive	inactive	inactive
NCc1cnco1	inactive	inactive	inactive
C[C@@H]1CCCCO[C@H](CN(C)C(=O)C2CCCCC2)[C@@H](C)CN([C@@H](C)CO)C(=O)c2cc(NC(=O)Nc3cccc4ccccc34)ccc2O1	inactive	inactive	inactive
CCc1c(C(=O)OC)nnc2cc(C)nn12	inactive	inactive	inactive
Cc1noc(C)c1S(=O)(=O)Nc1ccc2c(c1)CC(=O)N([C@H](C)CO)C[C@H](C)[C@@H](CN(C)S(C)(=O)=O)O2	inactive	inactive	inactive
O=C(C[C@H]1CC[C@@H]2[C@H](COC[C@@H](O)CN2C(=O)c2cnccn2)O1)N1CCN(c2ccccc2)CC1	inactive	inactive	inactive
C[C@H]1CN([C@@H](C)CO)C(=O)c2cccc(NS(=O)(=O)c3ccccc3)c2O[C@H]1CN(C)S(=O)(=O)c1ccccc1	inactive	inactive	inactive
CO[C@H]1/C=C\C=C(/C)C(=O)NC2=CC(=O)C(NCCN(C)C)=C(C[C@@H](C)C[C@H](OC)[C@H](O)[C@@H](C)/C=C(\C)[C@@H]1OC(N)=O)C2=O	active	active	inactive
